Some of the results follow.
Experiments:
Experiment in all cases: glycan array binding signal (z-score within array); higher = stronger binding
Conditions in all cases: glycan notation: IUPAC condensed, linker removed
[1] = molecular target: Neu5Ac(a2-3)Gal(b1-4)GlcNAc(b1-6)GalNAc
Procedure, shortened: (§1)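 From the Consortium for Functional Glycomics database, 3228 arrays were curated, keeping only those whose protein sequence was available. Binding is given as a within-array Z-score averaged across arrays sharing a protein sequence and across linkers. Negative Z-scores can be read as non-binding.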

[2] = molecular target: Neu5Ac(a2-3)Gal(b1-4)GlcNAc(b1-6)[Gal(b1-3)]GalNAc
Procedure, shortened: as §1

[3] = molecular target: Neu5Ac(a2-3)Gal(b1-4)GlcNAc(b1-6)[Neu5Ac(a2-3)Gal(b1-3)]GalNAc
Procedure, shortened: as §1

[4] = molecular target: Neu5Ac(a2-3)Gal(b1-4)GlcNAc6S
Procedure, shortened: as §1

[5] = molecular target: Neu5Ac(a2-3)Gal(b1-4)[Fuc(a1-3)]GlcNAc
Procedure, shortened: as §1

[6] = molecular target: Neu5Ac(a2-3)Gal(b1-4)[Fuc(a1-3)]GlcNAc(b1-2)Man
Procedure, shortened: as §1

[7] = molecular target: Neu5Ac(a2-3)Gal(b1-4)[Fuc(a1-3)]GlcNAc(b1-3)Gal
Procedure, shortened: as §1

[8] = molecular target: Neu5Ac(a2-3)Gal(b1-4)[Fuc(a1-3)]GlcNAc(b1-3)Gal(b1-4)GlcNAc
Procedure, shortened: as §1

[9] = molecular target: Neu5Ac(a2-3)Gal(b1-4)[Fuc(a1-3)]GlcNAc(b1-3)Gal(b1-4)[Fuc(a1-3)]GlcNAc(b1-3)Gal(b1-4)[Fuc(a1-3)]GlcNAc
Procedure, shortened: as §1

[10] = molecular target: Neu5Ac(a2-3)Gal(b1-4)[Fuc(a1-3)]GlcNAc(b1-3)GalNAc
Procedure, shortened: as §1

[11] = molecular target: Neu5Ac(a2-3)Gal(b1-4)[Fuc(a1-3)]GlcNAc(b1-6)[Gal(b1-3)]GalNAc
Procedure, shortened: as §1

[12] = molecular target: Neu5Ac(a2-3)Gal(b1-4)[Fuc(a1-3)]GlcNAc(b1-6)[Neu5Ac(a2-3)Gal(b1-3)]GalNAc
Procedure, shortened: as §1

[13] = molecular target: Neu5Ac(a2-3)Gal(b1-4)[Fuc(a1-3)]GlcNAc6S
Procedure, shortened: as §1

[14] = molecular target: Neu5Ac(a2-3)Gal6S(b1-4)GlcNAc
Procedure, shortened: as §1

[15] = molecular target: Neu5Ac(a2-3)Gal6S(b1-4)[Fuc(a1-3)]GlcNAc
Procedure, shortened: as §1

Neu5Ac(a2-3)GalNAc = molecular target: Neu5Ac(a2-3)GalNAc
Procedure, shortened: as §1

[16] = molecular target: Neu5Ac(a2-3)GalNAc(b1-4)GlcNAc
Procedure, shortened: as §1

[17] = molecular target: Neu5Ac(a2-3)[GalNAc(b1-4)]Gal(b1-4)Glc
Procedure, shortened: as §1

[18] = molecular target: Neu5Ac(a2-3)[GalNAc(b1-4)]Gal(b1-4)GlcNAc
Procedure, shortened: as §1

[19] = molecular target: Neu5Ac(a2-3)[GalNAc(b1-4)]Gal(b1-4)GlcNAc(b1-3)GalNAc
Procedure, shortened: as §1

[20] = molecular target: Neu5Ac(a2-3)[Neu5Ac(a2-6)]GalNAc
Procedure, shortened: as §1

Neu5Ac(a2-6)Gal = molecular target: Neu5Ac(a2-6)Gal
Procedure, shortened: as §1

[21] = molecular target: Neu5Ac(a2-6)Gal(b1-3)GlcNAc(b1-3)[Gal(b1-4)GlcNAc(b1-6)]Gal(b1-4)Glc
Procedure, shortened: as §1

Neu5Ac(a2-6)Gal(b1-4)Glc = molecular target: Neu5Ac(a2-6)Gal(b1-4)Glc
Procedure, shortened: as §1

[22] = molecular target: Neu5Ac(a2-6)Gal(b1-4)GlcNAc
Procedure, shortened: as §1

[23] = molecular target: Neu5Ac(a2-6)Gal(b1-4)GlcNAc(b1-2)Man
Procedure, shortened: as §1

[24] = molecular target: Neu5Ac(a2-6)Gal(b1-4)GlcNAc(b1-2)Man(a1-3)Man(b1-4)GlcNAc(b1-4)GlcNAc
Procedure, shortened: as §1

[25] = molecular target: Neu5Ac(a2-6)Gal(b1-4)GlcNAc(b1-2)Man(a1-3)[Gal(b1-4)GlcNAc(b1-2)Man(a1-6)]Man(b1-4)GlcNAc(b1-4)GlcNAc
Procedure, shortened: as §1

[26] = molecular target: Neu5Ac(a2-6)Gal(b1-4)GlcNAc(b1-2)Man(a1-3)[GlcNAc(b1-2)Man(a1-6)]Man(b1-4)GlcNAc(b1-4)GlcNAc
Procedure, shortened: as §1

[27] = molecular target: Neu5Ac(a2-6)Gal(b1-4)GlcNAc(b1-2)Man(a1-3)[GlcNAc(b1-4)][Neu5Ac(a2-6)Gal(b1-4)GlcNAc(b1-2)Man(a1-6)]Man(b1-4)GlcNAc(b1-4)GlcNAc
Procedure, shortened: as §1

[28] = molecular target: Neu5Ac(a2-6)Gal(b1-4)GlcNAc(b1-2)Man(a1-3)[Man(a1-6)]Man(b1-4)GlcNAc(b1-4)GlcNAc
Procedure, shortened: as §1

B1: PX9961C-bth-497-22-497 (Bacteroides thetaiotaomicron) (protein)
chain: DWLDLNTTSSVETGQAIVTLDDAQIALNGIYRLASGHSYYGDNYWYYGDCRAADVQARITKGDGKRVSPYYEYNVLASDNLNIVLPWNTVYKVIRQTNNLIQKIESGSIQSSDTKELNRIKSEALVMRGLSLFNLTRLFGMPYTNDKGASLGVPIETSPSDPTHKPSRSTVAQCYEQVVSDMSNALSGLRQETSNGYINYWAAQALLSRVYLNMGEYQKAYDAATDVIKNNGGRYQLYSYEEYPNVWGQDFQSESLFELYITLSEPSGGTGGEGAPMVYANEATVDWNNLILSEDFLNLLNEDPKDVRHCLTKESVIENNTGLPAAAMHEKVYLAKFPGKTGDDPKTNNICIIRLSEVYLNAAEAGLKKGTDIEEAQGYLNDIISRRTTDTSQQVSTETFTLDRILKERRKELVGEGEVFYDYLRNGLAIERKGSWHLETLKASNAQKIEATDLRIALPIPQSEIDANPNIQQNPR
Question: Which results are given for B1?
Answer: glycan array binding signal (z-score) [1]: 0.315; glycan array binding signal (z-score) [2]: -0.188; glycan array binding signal (z-score) [3]: 0.025; glycan array binding signal (z-score) [4]: -0.007; glycan array binding signal (z-score) [5]: -0.233; glycan array binding signal (z-score) [6]: 0.374; glycan array binding signal (z-score) [7]: -0.588; glycan array binding signal (z-score) [8]: -0.101; glycan array binding signal (z-score) [9]: 0.773; glycan array binding signal (z-score) [10]: -0.498; glycan array binding signal (z-score) [11]: 0.243; glycan array binding signal (z-score) [12]: -0.117; glycan array binding signal (z-score) [13]: -0.218; glycan array binding signal (z-score) [14]: 0.4; glycan array binding signal (z-score) [15]: -0.316; glycan array binding signal (z-score) (Neu5Ac(a2-3)GalNAc): -0.73; glycan array binding signal (z-score) [16]: -0.602; glycan array binding signal (z-score) [17]: -0.147; glycan array binding signal (z-score) [18]: -0.469; glycan array binding signal (z-score) [19]: -0.183; glycan array binding signal (z-score) [20]: -0.012; glycan array binding signal (z-score) (Neu5Ac(a2-6)Gal): 0.311; glycan array binding signal (z-score) [21]: -0.627; glycan array binding signal (z-score) (Neu5Ac(a2-6)Gal(b1-4)Glc): -0.447; glycan array binding signal (z-score) [22]: -0.122; glycan array binding signal (z-score) [23]: -0.411; glycan array binding signal (z-score) [24]: -0.302; glycan array binding signal (z-score) [25]: -0.066; glycan array binding signal (z-score) [26]: -0.304; glycan array binding signal (z-score) [27]: -0.255; glycan array binding signal (z-score) [28]: -0.007

— the supplement of paper PMC8728848
